Out of some 220,000 compounds screened, about 2,300 (1%) were called active. The inconclusive results got no clear call from the source; some entries with a clear call stand among them for comparison. Calls follow the shape of the dose curve; as a rule, active = well fitted inhibition curve with a large enough effect; inconclusive = small, poorly fitted or top-dose-only effect, or effect the other way; inactive = no such curve, though single readings can be large or run the other way. Potencies of inconclusive entries are left out as doubtful fits.
molecular target: Neuropeptide S receptor (Homo sapiens) (UniProt Q6W5P4); experiment: qHTS Assay for Antagonists of the Neuropeptide S Receptor: cAMP Signal Transduction; settings: CHO-NPSR cells, cAMP TR-FRET, antagonist mode; activity change, negative = inhibition: at 38.3 µM (top of the series) unless noted; also: nearly all actives have a fitted effect of over 50% in size
Sequence of UniProt Q6W5P4 (Q6W5P4 whole entry, looked up): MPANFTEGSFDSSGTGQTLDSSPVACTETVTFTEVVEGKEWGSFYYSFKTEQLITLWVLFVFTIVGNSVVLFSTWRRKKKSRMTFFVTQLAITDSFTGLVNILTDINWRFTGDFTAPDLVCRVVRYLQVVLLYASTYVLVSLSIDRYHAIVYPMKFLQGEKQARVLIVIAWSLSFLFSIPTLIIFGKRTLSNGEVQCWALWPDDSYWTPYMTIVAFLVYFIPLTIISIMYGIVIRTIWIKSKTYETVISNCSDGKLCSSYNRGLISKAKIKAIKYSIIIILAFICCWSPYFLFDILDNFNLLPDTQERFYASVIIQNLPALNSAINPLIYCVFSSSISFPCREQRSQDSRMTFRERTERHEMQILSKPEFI
% is scaled to controls: 0 for no effect and ±100 for the full control effect; potency is read from the fitted curve at half-maximal effect; tags tell the direction and shape of the fitted curve.

| Compound | Potency | activity change, negative = inhibition |
| --- | --- | --- |
| COc1ccc(C)cc1-n1c(SCC(=O)Nc2cc(C)on2)nc2sc(C)c(C)c2c1=O | inconclusive [inhibitor, partial curve] | – |
| CCOCC(=O)Nc1c(C(=O)Nc2ccccc2OC)oc2ccccc12 | inconclusive [activator, single point] | – |
| Brc1ccc(-c2nc3ncccn3c2Nc2ccc3c(c2)OCCO3)o1 | – | inactive: -17.9% [at 46.1 µM] |
| c1ccc(C[n+]2csc3ccccc32)cc1 | – | inactive: -13.5% [at 46.1 µM] |
| O=C(COC(=O)c1c2c(nc3ccccc13)CCCC2)Nc1ccc2c(c1)OCO2 | inconclusive [inhibitor, partial curve, poor fit] | – |
| O=C(Nc1cccc(C(F)(F)F)c1)Nc1ccc(N2CCCC2)c(S(=O)(=O)Nc2ccccc2Cl)c1 | active: 10 µM | – |
| COC(=O)c1c(NC(=S)NN2CCOCC2)sc2c1CCCC2 | inconclusive [activator, single point] | – |
| CCN(CCCNC(=O)CN1C(=O)COc2ccccc21)c1ccccc1 | – | inactive: -22.6% [at 46.1 µM] |
| CCN(C(=O)CSc1cc(-c2ccccc2)c2ccc(OC)cc2n1)C1CCS(=O)(=O)C1 (configuration not stated) | inconclusive [inhibitor, single point] | – |
| COc1ccc(/C=N/Nc2nnc(Cc3ccc(OC)c(OC)c3)c(=O)[nH]2)cc1 | – | inactive: 7.56% |
| COC(=O)c1ccc(COc2cc(O)c3c(c2)OC(C)(C)CC3=O)cc1 | inconclusive [inhibitor, full curve, poor fit] | – |
| CCOC(=O)c1cnc2ccc(OCC)cc2c1N1CCN(c2ccccc2OC)CC1 | inconclusive [inhibitor, single point] | – |
| CCOC(=O)Cn1nnnc1CN(Cc1ccc(OC)cc1)Cc1cc2cc(CC)ccc2[nH]c1=O | inconclusive [inhibitor, partial curve] | – |
| O=C(N/N=C/c1ccc(O)cc1)c1ccc(COc2cc(Cl)ccc2Cl)o1 | inconclusive [inhibitor, partial curve] | – |
| CNC(=S)N1N=C(c2ccc(C)cc2)CC1c1ccc(Cl)cc1 (configuration not stated) | inconclusive [inhibitor, partial curve] | – |
| Cc1cccc(OCc2n[nH]c(=S)n2C2CCCCC2)c1 | – | inactive: -2.27% [at 46.1 µM] |
| COc1ccc(-c2nnn(Cc3nc(N)nc(N4CCCCC4)n3)n2)cc1 | inconclusive [inhibitor, partial curve] | – |
| O=C(N=NC(=O)c1ccc2c(O)n(CC3CCCO3)c(O)c2c1)c1cccnc1 (configuration not stated) | – | inactive: -16.1% |
| CS(=O)(=O)N(CC(=O)Nc1ccc2c(c1)OCO2)Cc1ccc(Cl)cc1 | inconclusive [inhibitor, single point] | – |
| CC(CCc1ccccc1)NC(=O)CN1CCN(Cc2ccccc2)C1=O (configuration not stated) | inconclusive [inhibitor, single point] | – |
| CC(=O)Nc1cc(C(F)(F)F)ccc1Oc1cccc(Br)c1 | inconclusive [inhibitor, partial curve] | – |
| COc1ccc(-c2noc(CCC(=O)N3CCN(c4cc(C)ccc4C)CC3)n2)cc1 | inconclusive [inhibitor, single point] | – |
| O=C(Nc1cccc(-c2nnn(CC(=O)N3CCc4ccccc4C3)n2)c1)C1CCC1 | – | inactive: -26.8% [at 46.1 µM] |
| Cc1ccsc1-c1nc(CN2CCCC2c2ccc(F)cc2)c(C)o1 (configuration not stated) | – | inactive: 38.4% |

| Compound | Potency | activity change, negative = inhibition |
| --- | --- | --- |
| O=C1/C(=C/N(C(=O)c2ccco2)c2ccc(Cl)cc2)Sc2ccccc21 | – | inactive: -2.45% |
| Cc1c(-c2ccccc2)oc2c(C(=O)N3CCN(c4ccc([N+](=O)[O-])cc4)CC3)cccc2c1=O | inconclusive [inhibitor, single point] | – |
| CN(C)c1ccc(/C=C2\NC(=S)N(Cc3ccccc3)C2=O)cc1 | inconclusive [inhibitor, partial curve] | – |
| C=CCn1c(SCC(=O)NCC2CCCO2)nc2scc(-c3ccco3)c2c1=O (configuration not stated) | – | inactive: -17.3% [at 46.1 µM] |
| COc1ccc(CC(=O)OCC(=O)Nc2ncc(Cl)cc2Cl)cc1 | – | inactive: -14.6% [at 46.1 µM] |
| O=C(N[C@@H](Cc1ccccc1)C(=O)CCl)OCc1ccccc1 | inconclusive [inhibitor, single point] | – |
| COc1ccccc1NC(=O)CN1CCN(C2c3ccccc3-c3ccccc32)CC1 | inconclusive [inhibitor, partial curve] | – |
| CC(Nc1ccc(N2CCOCC2)cc1)C(=O)N1c2ccccc2CC1C (configuration not stated) | – | inactive: 20.7% |
| Cc1ccc(C(=O)Nc2nnc(-c3ccncc3)s2)o1 | inconclusive [inhibitor, single point] | – |
| Cc1ccc(S(=O)(=O)NC(=O)NC(C)(C)C)cc1 | – | inactive: 3.8% [at 46.1 µM] |
| O=C(c1nc(SCc2ccc([N+](=O)[O-])cc2)n2ccccc12)C(F)(F)F | – | inactive: 29% |
| COc1ccc(/C=N/NC(=O)CCn2c3ccccc3c3ccccc32)cc1O | – | inactive: -1.42% [at 46.1 µM] |
| COc1ccccc1-c1cc(C(=O)N2CCc3ccccc3C2)c2ccccc2n1 | inconclusive [inhibitor, partial curve] | – |
| Cc1nc(SCc2cccc(F)c2)c2oc3ccccc3c2n1 | inconclusive [activator, single point] | – |
| CCOc1cccc(-c2cc(C(=O)N3N=C(C)CC3(O)C(F)F)c3ccccc3n2)c1 (configuration not stated) | inconclusive [inhibitor, full curve, poor fit] | – |
| Cc1cccc(C)c1OCCCCc1c(C)n[nH]c1C | inconclusive [inhibitor, full curve, poor fit] | – |
| C#CCNC(=O)C1=C[C@H](c2csc3ccccc23)C[C@H](OCc2ccc(CO)cc2)O1 | inconclusive [activator, partial curve] | – |
| CC(=O)Nc1ccc(NC(=O)CSc2ccc(-c3ccco3)nn2)cc1 | – | inactive: 4.58% |
| O=C1c2cccnc2C(Nc2ccc(S(=O)(=O)N3CCCCC3)cc2)N1Cc1ccccc1 (configuration not stated) | – | inactive: -11.5% [at 46.1 µM] |
| CC(C)CC(C(=O)OCC(=O)c1c(N)n(C)c(=O)n(C)c1=O)N1C(=O)c2ccccc2C1=O (configuration not stated) | – | inactive: 4.87% |
| CC(=O)/C=C\c1cn(-c2ncc(C(F)(F)F)cc2Cl)c2ccccc12 | inconclusive [inhibitor, partial curve] | – |
| Cn1c(NCc2ccco2)nc2c1c(=O)n(Cc1ccc(Cl)cc1Cl)c(=O)n2C | inconclusive [inhibitor, single point] | – |
| O=C(c1ccc(S(=O)(=O)c2cccc(Cl)c2)c([N+](=O)[O-])c1)N1CCN(c2ccccn2)CC1 | – | inactive: 6.68% |
| CCOC(=O)C1=C(C)N(C)C(=O)NC1c1c(C)nn(-c2ccc(C)cc2)c1Cl (configuration not stated) | inconclusive [inhibitor, single point] | – |

| Compound | Potency | activity change, negative = inhibition |
| --- | --- | --- |
| CCOC(=O)c1ccc(Nc2nnc(C)c3ccccc23)cc1 | – | inactive: -12.1% |
| CC(C)c1nc(SCC(=O)c2ccc(F)cc2)c2ccccc2n1 | inconclusive [inhibitor, single point] | – |
| CCCn1c(CC)nc([N+](=O)[O-])c1S(=O)(=O)c1ccccc1 | inconclusive [inhibitor, full curve, poor fit] | – |
| C=CCNC(=S)NS(=O)(=O)c1cccs1 | – | inactive: 9.97% |
| Cc1cccc(Oc2nc(-c3ccccn3)nc3ccccc23)c1 | inconclusive [activator, single point] | – |
| Cc1cc2cc(CN(Cc3ccco3)C(=O)C3CCCCC3)c(=O)[nH]c2cc1C | inconclusive [inhibitor, partial curve] | – |
| CSc1nsc(/C=C/Nc2cccc(Cl)c2)c1C#N | inconclusive [inhibitor, partial curve] | – |
| Cc1cc(/C=N/NC(=O)C(O)(c2ccccc2)c2ccccc2)c(C)n1-c1ccccc1 | inconclusive [activator, full curve, poor fit] | – |
| CCOc1ccc(C2=NNC(c3cccs3)=Nc3ccc(OC)cc32)cc1OCC | – | inactive: -20.6% [at 46.1 µM] |
| CC(=O)c1c(N)[nH]c(-c2ccccc2)nc1=S | inconclusive [inhibitor, single point] | – |
| CCOc1ccccc1NC(=O)C(NCC1CCCCC1)c1ccccc1 (configuration not stated) | inconclusive [inhibitor, single point] | – |
| CC(C)CNC(=O)CC(=O)N/N=C/c1ccc(Br)cc1 | inconclusive [inhibitor, single point] | – |
| Cc1cc(C)c(N=Cc2c(O)n(-c3nccs3)c(=O)c3ccccc23)c(C)c1 | inconclusive [inhibitor, partial curve] | – |
| CCOC(=O)CSc1nc2c(c(=O)[nH]c(=O)n2C)n1C/C=C(/C)Cl | – | inactive: -3.73% [at 46.1 µM] |
| O=C(/C=C/c1cccnc1)c1ccc(O)cc1 | – | inactive: 7.77% |
| CCOC(=O)c1c(CN2CCOCC2)n(-c2ccccc2)c2ccc(O)cc12 | inconclusive [inhibitor, partial curve, poor fit] | – |
| CSC(=S)N/N=C(\C)c1ccc(Br)cc1 | inconclusive [activator, single point] | – |
| O=[N+]([O-])c1ccc(-c2nc(C(Cl)Cl)c3ccccc3n2)cc1 | active: 2 µM | – |
| O=C(c1cccc(F)c1)N1CCN(c2ccc([N+](=O)[O-])c(N3CCCCC3)c2)CC1 | inconclusive [inhibitor, single point] | – |
| O=C(Nc1sc2c(c1C(=O)O)CCC2)c1ccco1 | – | inactive: -14% [at 46.1 µM] |
| CCn1c(-c2ccc(C)cc2)n[nH]c1=S | – | inactive: -5.94% [at 46.1 µM] |
| CC[n+]1c(/C=C2\Sc3ccccc3N2C)ccc2cccc(C)c21 | active: 10 µM | – |
| Cc1onc(-c2ccccc2)c1-c1ccnn1S(=O)(=O)c1ccc(Cl)cc1 | inconclusive [activator, full curve] | – |
| N#CC(c1ccccc1)c1ccc(C(=O)c2ccc(F)cc2)cc1 (configuration not stated) | inconclusive [activator, partial curve] | – |

Source: PubChem BioAssay AID1461 (National Center for Advancing Translational Sciences (NCATS), 2008)
